# Out of some 45,000 compounds screened, about 65 (0.1%) were called active. The call rests on the fitted dose curve; in most records, active means well fitted activation curve with a large enough effect; inconclusive means small, poorly fitted or top-dose-only effect; inactive means no such curve, though single readings can be large or run the other way. This is one part of the list.
# Biological target: Galactocerebrosidase (Homo sapiens) (UniProt P54803)
# Assay: A Novel Cell-Based Assay to Identify Small Molecules for B -Galactocerebrosidase; further: 0% is about no effect; nearly all actives have a fitted effect of over 65% in size
# Conditions: 145M-Twi-hGALC-G270D cells (Twitcher mouse brain line with human GALC G270D), HMU-beta-Gal fluorescence, 48 h; series mostly up to 57.5 µM; activation: at the top concentration
# Source text: Lysosomal storage diseases (LSDs) are caused by genetic mutations in genes encoding proteins important for normal lysosomal function. Globoid cell leukodystrophy (GLD), mostly known as Krabbe disease, is a prototype of the neurological LSDs caused by deficiency of beta-galactocerebrosidase (GALC). In brain specimens of GLD patients, psychosine levels are substantially elevated. At elevated concentrations, psychosine becomes cytotoxic to neuronal cells, particularly to oligodendrocytes (OLG), neural cells responsible for myelin formation. Therefore, the biochemical disturbances in GLD are manifested by different degrees of brain demyelination resulting in a broad spectrum of neurological manifestations. Most of the FDA-approved therapies are based on enzyme replacement therapeutic (ERT) agents, which treat non-neurological symptoms of Gaucher disease, Fabry disease, few mucopolysaccharidoses and Pompe disease. Unfortunately, in GLD, a primarily neurological LSD, ERT agents, as large molecular weight molecules unable to cross the blood-brain barrier, which makes this an inefficacious therapeutic approach. In GLD, increasing the residual GALC activity just above the critical threshold (~10% of wild type enzymatic activity), the cytotoxic levels of psychosine will be reduced, avoiding the OLGs apoptosis and the subsequent demyelination process. This will translate in disease stabilization and amelioration of GLD patient symptoms.
# A cell-based assay in 1,536-well plate format was developed to implement a quantitative high-throughput screening (qHTS) assay using GLD-disease relevant cells to identify small molecules that produce enhancements of the residual enzymatic activity levels of mutants GALC found and prevalent in GLD patients. Compounds that are active may therefore have some therapeutic application for GLD. After the treatment of live cells for a determined period, using a fluorescent GALC specific substrate, the mutant residual GALC activity is measured. This cell-based qTHS assay was used to screen part of the MLPCN library for small molecule able to increase the mutant GALC enzymatic activity. In this assay, increased fluorescent signal corresponds to enhanced levels of mutant GALC residual enzymatic activity. Activation is the desired outcome for this assay.
# NIH Chemical Genomics Center [NCGC]
# NIH Molecular Libraries Probe Centers Network [MLPCN]
# Assay Submitter (PI): Gustavo Maegawa MD,PhD, University of Florida, Gainesville, FL
# 2)#Two cell lines were established for the assay: 145M-Twi-hGALC-G270D (brain-derived Twitcher cell line stably expressing human GALC-G270D) and 145M-Twi-hGALC-WT (same 145M-Twi stably expressing human GALC wild type). The Twitcher is the murine C57B/6 model for GLD with naturally occurring homozygous nonsense GALC mutation. The 145M-Twi cell line was established at Maegawa lab (Ribbens J et al 2014).
# a.#Media: DMEM/F12 (1:1) with 10% fetal bovine-serum (FBS) with penicillin/streptomycin (PS-1X - 100 I.U./mL of penicillin+100 ug/mL of streptomycin).
# b.#The 6-Hexadecanoylamino-4-methylumbelliferyl-b-D-galactoside (HMU-B-gal) substrate was prepared as per Wiederschain et al 1992. Using 20-mL borosilicate tubes, 2.20 mg of HMU-b-Gal was added in each tube to prepare substrate-film with a final air-nitrogen stream evaporation to remove all diluent solvents.
# c.#The HMUb-Gal substrate buffer consists of 0.2 M Na2HPO4 (sodium phosphate dibasic)/ 0.1 M Citric Acid with the pH adjusted to 5.2 using HCl. Sodium Azide at 0.02% and Sodium Taurocholate (NaTC) at 1 mg/mL were added to this substrate buffer.
# d.#The HMU-b-Gal stopping buffer consist of 0.5 M NaHCO3 (sodium bicarbonate) /0.5 M Na2CO3 (sodium carbonate). […] Triton X-100 at 0.25% was added.
# 4)#Preparation of HMU-b-Gal substrate tubes
# Adding 18.6 mL of the HMUb-Gal substrate buffer to each 20-mL tube (2.20 mg of HMU-b-Gal) will reach a concentration of 0.2 mM. Vortex well the tube until the solution is fully homogenized (clear cloudy solution). […]
# UniProt P54803, sequence (P54803 whole entry, looked up): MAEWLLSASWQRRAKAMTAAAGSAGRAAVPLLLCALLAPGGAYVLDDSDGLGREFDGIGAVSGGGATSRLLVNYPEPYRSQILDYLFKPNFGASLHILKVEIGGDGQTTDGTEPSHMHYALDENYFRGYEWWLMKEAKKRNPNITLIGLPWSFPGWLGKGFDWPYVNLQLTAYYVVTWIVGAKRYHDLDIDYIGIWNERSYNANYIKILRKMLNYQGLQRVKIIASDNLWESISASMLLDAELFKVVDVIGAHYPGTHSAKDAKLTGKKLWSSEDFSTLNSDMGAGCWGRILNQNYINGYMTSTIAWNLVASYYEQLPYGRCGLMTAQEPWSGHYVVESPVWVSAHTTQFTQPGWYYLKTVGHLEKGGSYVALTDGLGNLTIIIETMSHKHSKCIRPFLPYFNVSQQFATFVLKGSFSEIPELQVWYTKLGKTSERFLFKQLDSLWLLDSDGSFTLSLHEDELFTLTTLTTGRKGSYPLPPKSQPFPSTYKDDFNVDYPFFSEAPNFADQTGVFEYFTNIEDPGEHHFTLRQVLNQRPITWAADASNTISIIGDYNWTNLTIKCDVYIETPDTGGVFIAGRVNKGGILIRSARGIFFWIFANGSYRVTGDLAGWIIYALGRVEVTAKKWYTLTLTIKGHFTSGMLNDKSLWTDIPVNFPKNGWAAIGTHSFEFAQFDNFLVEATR
row,Structure (SMILES),activation
1,CCOc1ccc(NC(=O)Cc2ccc(-n3c(C)nc4cccnc43)cc2)cc1,inactive: -8.39%
2,CCOC(=O)C1CCCN(Cc2cn3c(-c4ccc(Br)cc4)nnc3s2)C1 (stereo not given),inactive: -15.6%
3,COc1ccc(C(=O)NNc2ncnc3c2cnn3-c2ccccc2)cc1,inactive: -10.9%
4,CN(C(=O)c1ccc2c(c1)N(Cc1ccccc1F)C(=O)c1ccccc1S2(=O)=O)C1CCCCC1,inactive: 3.57%
5,COc1ccc(NC(=O)C(NC(=O)/C=C\c2ccc3c(c2)OCO3)c2ccc(OC)cc2)cc1 (stereo not given),inactive: -30.5%
6,Cc1ccc(NC(=O)CN2C(=O)c3ccccc3Sc3ccc(C(=O)N4CCCC4)cc32)cc1,inactive: -8.24%
7,O=C(Nc1cc(Cl)ccc1Cl)c1cc(S(=O)(=O)N2CCCc3ccccc32)ccc1F,inactive: -4.4%
8,CCN(CC)CCNC(=O)c1[nH]c2ccccc2c1Sc1ccc(Cl)cc1,inactive: -30.3%
9,COC(=O)c1c(NC(=O)COc2c(C)ccc(C)c2C)sc2c1CCC(C)C2 (stereo not given),inactive: -8.64%
10,CC1=C(C(=O)Nc2cccnc2)C(c2ccc(Cl)cc2)n2nc(SCc3ccccc3)nc2N1 (stereo not given),inactive: -7.06%
11,Cc1ccc(-n2nc(C(=O)Nc3cccc(C#N)c3)c3c4ccccc4n(C)c3c2=O)cc1,inactive: 0.235%
12,Cc1cc2n(n1)CCC(=O)N2Cc1ccc(C(=O)Nc2ccc(Br)c(C)c2)cc1,inactive: -13.1%
13,CCCN1CCN(c2ncnc3sc(C(=O)Nc4cccc(Cl)c4C)c(C)c23)CC1,inactive: -15.3%
14,O=C(NCCc1ccc(Cl)cc1)c1nc(-c2cccc(F)c2)n2c1CCCCC2,inactive: -15.9%
15,CCOc1ccc(NC(=O)[C@H](Cc2ccccc2)N2Cc3ccccc3C2=O)cc1,inactive: -0.286%
16,CCN(CC)c1cc2c(cc1F)c(=O)c(S(=O)(=O)c1ccc(C)cc1)cn2Cc1ccc(F)cc1,inactive: -11%
17,CCCSc1nc2c(c(=O)[nH]1)C(c1ccc(F)cc1F)CC(=O)N2 (stereo not given),inactive: -8.87%
18,O=C(Cn1ncc2ccsc2c1=O)N1CCN(c2ccccc2)CC1,inactive: -17%
19,CCCc1nnc(NC(=O)Cc2coc3ccc(C)cc23)s1,inactive: -14.3%
20,Brc1ccc(CN2CCc3nc(N4CCN(c5ncccn5)CC4)ncc3C2)cc1,inactive: -4.07%

row,Structure (SMILES),activation
1,O=C(Cn1c(=O)n(CCc2ccccc2)c(=O)c2c3c(sc21)CCCC3)Nc1ccc(F)c(F)c1,inactive: -5.26%
2,CCOc1ccccc1Nc1sc(C(=O)c2ccc(Cl)cc2)c(N)c1C(=O)NCCc1ccccc1,inactive: 14.6%
3,CCOC(=O)c1c(C)c(C(=O)NCc2ccc(Cl)cc2)c(C)n1CC,inactive: -8.49%
4,CCC1CCc2nc3sc(C(=O)Nc4ccc(F)c(F)c4)c(N)c3cc2C1 (stereo not given),inactive: -12%
5,COc1ccc(NC(=O)CSc2nc3c(c(=O)[nH]2)CCC3)cc1,inactive: -6.96%
6,Cn1c(-c2ccc(S(=O)(=O)N3CCCC3)cc2)csc1=Nc1ccc(Cl)c(Cl)c1,inactive: -21.6%
7,CC(C)c1ccccc1Oc1c(C(F)(F)F)oc2c(CN3CCN(C)CC3)c(O)ccc2c1=O,inactive: -4.01%
8,COc1ccccc1N1CCN(C(=O)c2cc3c(=O)oc4ccc(C)cc4c3s2)CC1,inactive: 0.75%
9,CCOc1ccc(-c2nc(CNC(=O)Nc3ccccc3)c(C)o2)cc1,inactive: -23.1%
10,Cc1ccc(CNC(=O)c2cn(C)c3ccc(S(=O)(=O)N4CCOCC4)cc3c2=O)cc1,inactive: -8.51%
11,COc1ccc(NCc2cc3ccc(OC)cc3n(CC(=O)Nc3cccc(OC)c3)c2=O)cc1,inactive: 1.34%
12,Cc1ccccc1NC(=O)CSc1nc2ccccc2c2nc(CCn3c(C)nc4ccccc43)nn12,inactive: -12.1%
13,CC(C(O)c1ccc(O)cc1)N1CCC(Cc2ccccc2)CC1 (stereo not given),inactive: -17.8%
14,O=C(COCc1cc(-c2cccs2)on1)NCc1cccc(Cl)c1,inactive: -19.4%
15,Cc1cc(C)c(/C=C/c2onc(C)c2S(=O)(=O)N2CCC(C(=O)Nc3ccc(Cl)cc3C)CC2)c(C)c1,inactive: -7.78%
16,COc1cc(NC(=O)c2nn(-c3ccc(F)cc3)c(=O)n(C)c2=O)cc(OC)c1OC,inactive: -18.4%
17,CCn1c(C(=O)N2CCC(C(=O)NCCCOC)CC2)cc2sccc21,inactive: -8.73%
18,Cc1cn(S(=O)(=O)c2ccc(F)c(Cl)c2)cn1,inactive: -6.66%
19,CCOc1ccc(/C=C/c2nc(C#N)c(Nc3ccc(OCC)cc3)o2)cc1,inactive: -7.99%
20,Cc1c(-c2ccccc2)c(=O)oc2c(CN3CCCC3)c(O)ccc12,inactive: -29.8%

row,Structure (SMILES),activation
1,CCc1ccc(C2CC(=O)NC(NC(=O)c3ccc(C(C)(C)C)cc3)=N2)cc1 (stereo not given),inactive: -13%
2,CC1CC(=O)N(CC(=O)Nc2ccc(F)cc2F)c2ccccc2S1 (stereo not given),inactive: 6.04%
3,O=C(CCCn1ccc2cc(S(=O)(=O)N3CCCC3)ccc21)NCc1ccc(Cl)cc1,inactive: -22.7%
4,COc1ccc(NC(=O)Nc2cccc(-c3cn4cccnc4n3)c2)cc1,inactive: -5.6%
5,O=C(NCCc1ccc(Cl)cc1)c1ccc2c(c1)N(Cc1ccccc1F)C(=O)c1ccccc1S2(=O)=O,inactive: -12.5%
6,Cc1nc2ccn(Cc3ccccc3)c(=O)c2cc1C(=O)NCc1ccccc1F,inactive: -25.8%
7,COc1cccc(CNC(=O)CN2C(=O)COc3ccc(S(=O)(=O)N4CCCCCC4)cc32)c1,inactive: -2.78%
8,CCOc1ccc(NC(=O)Cn2c(=O)n(Cc3ccc(C(=O)NCc4ccc(C)cc4)cc3)c(=O)c3ccccc32)cc1,inactive: -9.6%
9,CN(C)c1ccc(NC(=O)CN2CCN(CC(=O)Nc3ccc(Br)cc3)CC2)cc1,inactive: 1.37%
10,Cc1ccc(CNC(=O)c2cc3c(s2)-c2ccc(Cl)cc2SC3)cc1,inactive: 1.47%
11,Cc1ccc(CSC2=Nc3ccccc3C3=NC(CC(=O)NCc4cccs4)C(=O)N23)cc1 (stereo not given),inactive: -7.5%
12,O=c1cc(-c2ccccc2)oc2ccccc12,inactive: -3.8% [at 114 µM]
13,Cc1ccc(-c2nc3ncccc3o2)cc1NC(=O)c1ccccc1Br,inactive: -24.3%
14,O=C(NCC1CCCO1)c1c[nH]c2ccc(S(=O)(=O)Nc3ccc(F)cc3F)cc2c1=O (stereo not given),inactive: -5.16%
15,CC(C)(C)c1ccc(-c2nc(S(=O)(=O)c3ccccc3)c(N3CCOCC3)o2)cc1,inactive: -14.4%
16,CCOc1ccc(NC(=O)NCCn2nnc3cc(S(=O)(=O)N(C)C)ccc32)cc1,inactive: -13.3%
17,O=C(c1cccc(F)c1)N1CCC(c2c[nH]c3ccccc23)(c2c[nH]c3ccccc23)CC1,inactive: -6.57%
18,COc1ccc(C(=O)Nc2nnc(S(=O)(=O)N3CCC(C)CC3)s2)cc1OC,inactive: -20.6%
19,CCN(C(=O)C1CCCN(c2ncnc3onc(-c4ccc(F)cc4)c23)C1)c1ccccc1 (stereo not given),inactive: -27.1%
20,CCOc1ccc(C(CC(=O)Nc2cc(C)c(Cl)cc2OC)N2Cc3ccccc3C2=O)cc1OC (stereo not given),inactive: -6.67%
